Data reported in the supplement of paper PMC9174493.
Some of the results follow. Single values of this set are uncertain. Values with irradiation are relative to irradiated vehicle.

Key:
A549-Dual [1] = assay: NF-kB reporter (SEAP) activity, viability-corrected, relative to vehicle (fold change vs vehicle); higher = more activation of STING-IRF / NF-kB immune response reporter
A549-Dual [2] = assay: ISRE reporter (Lucia luciferase) activity, viability-corrected, relative to vehicle (fold change vs vehicle); higher = more activation of STING-IRF / NF-kB immune response reporter
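Throughout, for NF-kB reporter (SEAP) activity, viability-corrected, relative to vehicle: viability correction based on the alamar blue assay, with concentrations leaving 10% survival or less dropped.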

| Compound | NF-kB reporter (A549-Dual [1]; 0.1 µM, irradiation: 8 Gy/4 fr) | NF-kB reporter (A549-Dual [1]; 0.1 µM, irradiation: none) | NF-kB reporter (A549-Dual [1]; 0.3 µM, irradiation: 8 Gy/4 fr) | NF-kB reporter (A549-Dual [1]; 0.3 µM, irradiation: none) | NF-kB reporter (A549-Dual [1]; 1 µM, irradiation: 8 Gy/4 fr) | NF-kB reporter (A549-Dual [1]; 1 µM, irradiation: none) | NF-kB reporter (A549-Dual [1]; 3 µM, irradiation: 8 Gy/4 fr) | NF-kB reporter (A549-Dual [1]; 3 µM, irradiation: none) | NF-kB reporter (A549-Dual [1]; 10 µM, irradiation: 8 Gy/4 fr) | NF-kB reporter (A549-Dual [1]; 10 µM, irradiation: none) | ISRE reporter (A549-Dual [2]; 0.1 µM, irradiation: 8 Gy/4 fr) | ISRE reporter (A549-Dual [2]; 0.1 µM, irradiation: none) | ISRE reporter (A549-Dual [2]; 0.3 µM, irradiation: 8 Gy/4 fr) | ISRE reporter (A549-Dual [2]; 0.3 µM, irradiation: none) | ISRE reporter (A549-Dual [2]; 1 µM, irradiation: 8 Gy/4 fr) | ISRE reporter (A549-Dual [2]; 1 µM, irradiation: none) | ISRE reporter (A549-Dual [2]; 3 µM, irradiation: 8 Gy/4 fr) | ISRE reporter (A549-Dual [2]; 3 µM, irradiation: none) | ISRE reporter (A549-Dual [2]; 10 µM, irradiation: 8 Gy/4 fr) | ISRE reporter (A549-Dual [2]; 10 µM, irradiation: none) |
| --- | --- | --- | --- | --- | --- | --- | --- | --- | --- | --- | --- | --- | --- | --- | --- | --- | --- | --- | --- | --- |
| Cc1nc(Nc2ncc(C(=O)Nc3c(C)cccc3Cl)s2)cc(N2CCN(CCO)CC2)n1 [Dasatinib] | 0.735 | 1.15 | 0.699 | 1.13 | 0.629 | 1.15 | 0.716 | 0.939 | 0.914 | 0.917 | 0.358 | 0.614 | 0.269 | 0.497 | 0.186 | 0.495 | 0.187 | 0.383 | 0.159 | 0.382 |
| CN(Cc1cnc2nc(N)nc(N)c2n1)c1ccc(C(=O)NC(CCC(=O)O)C(=O)O)cc1 (stereo not given) [Methotrexate] | 1.13 | 1.25 | 0.983 | 1.56 | 0.823 | 2 | 1.02 | 1.74 | 0.691 | 1.42 | 0.848 | 0.568 | 0.158 | 0.769 | 0.113 | 0.746 | 0.0837 | 0.535 | 0.121 | 0.568 |
| COc1c(C)c2c(c(O)c1C/C=C(\C)CCC(=O)OCCN1CCOCC1)C(=O)OC2 [Mycophenolate Mofetil] | 1.02 | 1.1 | 1.12 | 1.25 | 1.07 | 1.14 | 1.27 | 1.35 | 0.622 | 1.27 | 1.07 | 0.971 | 0.929 | 0.549 | 0.123 | 0.432 | 0.237 | 0.224 | 0.0537 | 0.284 |
| CCCC1CC(C(=O)NC(C(C)O)C2OC(SC)C(O)C(O)C2O)N(C)C1.Cl (stereo not given) [Lincomycin HCl] | 0.988 | 1.03 | 0.948 | 1.06 | 1.03 | 1.44 | 0.896 | 1.11 | 0.955 | 1.1 | 0.997 | 1.02 | 1.18 | 1.11 | 1.05 | 1.16 | 1.04 | 0.929 | 1.02 | 1.08 |
| CN1CCN2c3ncccc3Cc3ccccc3C2C1 (stereo not given) [Mirtazapine] | 1.19 | 2.04 | 1.17 | 1.59 | 1.57 | 1.19 | 1.91 | 1.3 | 1.07 | 0.844 | 1.05 | 1.53 | 1.01 | 1.35 | 1.26 | 1.14 | 1.05 | 1.16 | 1.43 | 1.17 |
| CNC(=O)c1c(C)oc2cc(Oc3ncnc4cc(OC)c(OC)cc34)ccc12 [Fruquintinib] | 1.07 | 1.3 | 1.02 | 1.01 | 1.13 | 1.39 | 1.04 | 1.25 | 0.884 | 1.12 | 1.13 | 1.45 | 1.29 | 1.02 | 0.859 | 1.14 | 1.09 | 0.769 | 0.884 | 0.835 |
| CN(C)CCOC(c1ccccc1)c1ccccc1.Cl [Diphenhydramine HCl] | 1.04 | 0.853 | 0.98 | 0.989 | 1.17 | 0.848 | 0.77 | 0.927 | 0.832 | 1.01 | 1.06 | 0.981 | 0.856 | 1.03 | 1.07 | 0.927 | 0.885 | 1.07 | 1.08 | 0.923 |
| COc1ccccc1N1CCN(CC(O)COc2cccc3ccccc23)CC1.Cl.Cl (stereo not given) [Naftopidil DiHCl] | 1.15 | 1.22 | 1.45 | 1.18 | 1.06 | 1.09 | 1.18 | 0.93 | 0.842 | 0.955 | 0.938 | 0.951 | 1.4 | 1.13 | 0.953 | 0.879 | 1.12 | 0.772 | 0.972 | 1.05 |
| O.O.O=C([O-])CCNC(=O)c1ccc(N=Nc2ccc(O)c(C(=O)[O-])c2)cc1.[Na+].[Na+] [Balsalazide disodium] | 1.04 | 1.55 | 1.03 | 1.86 | 1.1 | 1.27 | 1.24 | 1.47 | 1.12 | 1.04 | 1.26 | 1.51 | 1.14 | 1.44 | 1.12 | 1.19 | 1.12 | 1.28 | 1.03 | 0.993 |
| CC1(C)OC2CC3C4CCC5=CC(=O)C=CC5(C)C4C(O)CC3(C)C2(C(=O)CO)O1 (stereo not given) [Desonide] | 0.658 | 1.14 | 0.826 | 1.13 | 1.02 | 0.905 | 1.25 | 0.76 | 0.939 | 0.74 | 0.0649 | 0.254 | 0.0583 | 0.273 | 0.0495 | 0.264 | 0.0469 | 0.268 | 0.0659 | 0.246 |
| Cc1ccc(Nc2nccc(N(C)c3ccc4c(C)n(C)nc4c3)n2)cc1S(N)(=O)=O.Cl | 0.988 | 1.08 | 0.904 | 1.12 | 0.774 | 1.08 | 0.853 | 0.834 | 0.929 | 0.859 | 0.894 | 1.03 | 0.979 | 0.995 | 0.751 | 0.887 | 0.553 | 0.822 | 0.505 | 0.682 |
| COc1cccc2c1C(=O)c1c(O)c3c(c(O)c1C2=O)CC(O)(C(=O)CO)CC3OC1CC(N)C(O)C(C)O1.Cl (stereo not given) [Doxorubicin (Adriamycin) HCl] | 0.915 | 1.83 | 1.4 | 3.17 | 2.81 | 10.4 | 4.91 | 6.92 | 2.69 | 1.82 | 0.481 | 3.44 | 0.814 | 6.1 | 0.618 | 2.12 | 0.634 | 3 | 0.363 | 0.632 |
| CC[N+](CC)(CC)CCOc1cccc(OCC[N+](CC)(CC)CC)c1OCC[N+](CC)(CC)CC.[I-].[I-].[I-] [Gallamine Triethiodide] | 0.698 | 0.805 | 0.819 | 0.819 | 0.837 | 0.787 | 0.754 | 0.845 | 0.724 | 0.837 | 0.805 | 0.822 | 0.73 | 0.661 | 0.577 | 0.773 | 0.647 | 0.926 | 0.643 | 0.802 |
| O=C1Nc2ccccc2/C1=C1\Nc2ccccc2C1=O [Indirubin] | 1.33 | 1.42 | 1.02 | 1.54 | 0.964 | 1.91 | 0.952 | 1.4 | 0.857 | 1.29 | 0.966 | 0.772 | 0.749 | 0.628 | 0.716 | 0.858 | 0.298 | 0.309 | 0.302 | 0.407 |
| CC(C)(C)C(=O)Oc1ccc(S(=O)(=O)Nc2ccccc2C(=O)NCC(=O)O)cc1 [Sivelestat (ONO-5046)] | 0.955 | 0.947 | 0.843 | 1.22 | 0.837 | 1.63 | 0.853 | 1.26 | 0.854 | 1.01 | 1.06 | 1.12 | 0.879 | 1.12 | 0.907 | 1.15 | 0.935 | 0.919 | 0.989 | 0.814 |
| Cc1ccc(C(C)C)cc2c(C)ccc1-2 [Guaiazulene] | 1.23 | 1.79 | 1.11 | 1.44 | 1.3 | 1.13 | 1.71 | 1.17 | 1.05 | 0.603 | 1.2 | 1.62 | 0.982 | 1.19 | 1.16 | 1.04 | 0.905 | 1.05 | 1.23 | 0.85 |
| Cc1ccc(-c2ncc(Cl)cc2-c2ccc(S(C)(=O)=O)cc2)cn1 [Etoricoxib] | 0.985 | 1.13 | 1.06 | 0.841 | 1.02 | 0.857 | 1.11 | 0.867 | 0.923 | 1.01 | 1.01 | 0.817 | 0.923 | 0.705 | 0.791 | 0.705 | 0.791 | 0.817 | 0.826 | 0.854 |
| C=CC1=C(C)c2cc3nc(cc4[nH]c(cc5[nH]c(cc1n2)c(C)c5C=C)c(C)c4CCC(=O)O)C(CCC(=O)O)=C3C [Protoporphyrin IX] | 0.953 | 0.845 | 0.772 | 0.66 | 1.01 | 0.786 | 1.02 | 0.781 | 0.775 | 0.964 | 0.881 | 0.704 | 0.718 | 0.562 | 0.647 | 0.677 | 0.703 | 0.804 | 0.766 | 0.811 |
| Cc1ccc(C(=O)c2ccc(CC(=O)O)n2C)cc1 [Tolmetin] | 0.907 | 0.676 | 0.674 | 1.06 | 1.07 | 0.564 | 1.34 | 1.04 | 0.52 | 0.347 | 0.909 | 0.665 | 0.91 | 1.03 | 0.942 | 0.546 | 0.807 | 1.04 | 0.606 | 0.631 |
| O=c1ccc2cc3ccoc3cc2o1 [Psoralen] | 1.08 | 0.711 | 1.03 | 0.653 | 0.986 | 0.798 | 0.753 | 1.05 | 0.867 | 0.816 | 1.06 | 0.697 | 0.963 | 0.65 | 0.826 | 0.721 | 0.775 | 0.931 | 0.839 | 0.803 |
| Cc1nccn1CC1CCc2c(c3ccccc3n2C)C1=O.Cl (stereo not given) [Ondansetron HCl] | 0.885 | 1.39 | 1.11 | 1.49 | 1.51 | 1.1 | 1.4 | 1.11 | 1.07 | 1.1 | 1.01 | 0.772 | 0.914 | 1.04 | 0.851 | 0.856 | 0.78 | 1.19 | 0.784 | 0.803 |
| Cc1c(-c2ccc(O)cc2)n(Cc2ccc(OCCN3CCCCCC3)cc2)c2ccc(O)cc12.Cl [Bazedoxifene HCl] | 0.947 | 1.01 | 1 | 0.975 | 0.981 | 1.04 | 1.14 | 1.07 | 1.03 | 1.06 | 1.03 | 1.07 | 1.04 | 1.05 | 1.09 | 1.08 | 1.34 | 1.5 | 1.31 | 1.95 |
| CN1C(C(=O)Nc2ccccn2)=C(O)c2ccccc2S1(=O)=O [Piroxicam] | 0.874 | 1.49 | 1.02 | 1.31 | 1.2 | 1.03 | 1.4 | 1.06 | 1.18 | 0.936 | 0.952 | 0.773 | 0.87 | 0.782 | 0.8 | 0.803 | 0.884 | 1.01 | 0.896 | 0.973 |
